The target of this experiment is T1, 1-27 CD3-Fc (human).
T1 construct: assigned to this molecule; also called 1-27 CD3ε-Fc; 27 aa huCD3E
Description: ELISA, periplasmic scFv on captured 1-27 CD3-Fc. A general note: In an ELISA, binding on a coated surface is turned into a signal by an enzyme label.

B1: H1E HLP (scFv)
scFv: EVQLLESGGGLEQPGGSLKLSCAASGFTFNSYAMNWVRQAPGKGLEWVARIRSKYNNYATYYADSVKGRFTISRDDSKNTAYLQMNNLKTEDTAVYYCVRHGNFGNSYLSFWAYWGQGTLVTVSSGGGGSGGGGSGGGGSELVVTQEPSLTVSPGGTVTLT[letters of about 80 residues not shown]FGGGTKLTVL
notes: crude periplasmic preparation; also called VH-VL-P of H1E
As for B1, the binding result is recorded as “binds”.

The record behind these values is US20190169310A1 (Amgen, published 2019).
